{"source": "patent US12577273B2", "about": "“Small molecule modulators of gut bacterial bile acid metabolism” (priority 2019, dated 2026)", "key": {"TGR5": {"biological_target": "T1, TGR5 (Homo sapiens, UniProt Q8TDU6)", "T1 construct": "endogenous in cells; host or cells: Caco-2 (ATCC), transiently transfected only with the CRE-luciferase and Renilla reporter plasmids", "T1 sequence (Q8TDU6 1-330)": "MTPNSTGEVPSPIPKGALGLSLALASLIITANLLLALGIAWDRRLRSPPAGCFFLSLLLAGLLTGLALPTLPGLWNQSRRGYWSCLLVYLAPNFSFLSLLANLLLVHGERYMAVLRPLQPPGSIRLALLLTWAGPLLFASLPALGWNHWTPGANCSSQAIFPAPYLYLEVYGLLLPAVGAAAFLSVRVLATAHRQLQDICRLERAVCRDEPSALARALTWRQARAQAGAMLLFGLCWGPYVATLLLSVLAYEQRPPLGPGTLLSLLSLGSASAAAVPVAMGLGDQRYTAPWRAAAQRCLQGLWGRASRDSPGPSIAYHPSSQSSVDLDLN", "experiment": "TGR5 luciferase reporter assay in Caco-2 cells", "format": "cell-based", "settings": "overnight, in the presence of 10 μM LCA"}, "B. theta": {"system": "B. theta", "experiment": "Inhibitor screen in bacteria, B. theta culture", "format": "cell-based, Bacteroides thetaiotaomicron VPI-5482", "settings": "FIG. 2c, 100 μM inhibitor, 21 h, replicates 1-3", "description": "Bacterial Culturing. All bacterial strains were cultured at 37° C. in Cullen-Haiser Gut (CHG) media (which consists of brain heart infusion media (Bacto™ BHI, BD) supplemented with 1% BBL vitamin K1-hemin solution (BD), 1% trace minerals solution (ATCC), 1% trace vitamins solution (ATCC), 5% fetal bovine serum (Hyclone), 1 g/L cellubiose, 1 g/L maltose, and 1 g/L fructose) or BHI^+ (Bacto™ BHI, BD, supplemented with 5 mg/L hemin, and 2.5 uL/L Vitamin K1). All strains were grown under anaerobic conditions in a anaerobic chamber (Coy Lab Products Airlock) with a gas mix of 5% hydrogen and 20% carbon dioxide nitrogen. Escherichia coli was grown aerobically at 37° C. in LB medium supplemented with ampicillin to select for the pET21b plasmid.\nInhibitor Screen in Bacteria. Bacterial cultures were diluted to OD600 of 0.1 in 4 mL BHI^+, containing 100 μM taurine conjugated bile acid pool 100 μM inhibitors. […] After 21 h, serial dilutions were plated on BHI^+ agar to determine cell viability (CFU/mL). […] The cultures were spun down in a centrifuge at 2,500 g for 5 mins to obtain better separation. The organic layer was then removed and the aqueous layer was extracted again using 2 mL of ethyl acetate."}, "FXR": {"biological_target": "T2, FXR (Homo sapiens, UniProt Q96RI1)", "T2 sequence (Q96RI1 262-486 limits assumed)": "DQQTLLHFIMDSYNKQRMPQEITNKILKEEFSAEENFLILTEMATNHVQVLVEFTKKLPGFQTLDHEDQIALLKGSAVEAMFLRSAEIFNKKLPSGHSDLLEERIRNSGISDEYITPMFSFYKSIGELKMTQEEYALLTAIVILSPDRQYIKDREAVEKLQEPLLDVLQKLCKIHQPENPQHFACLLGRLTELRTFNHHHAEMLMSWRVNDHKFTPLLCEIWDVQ", "experiment": "LanthaScreen TR-FRET FXR coactivator recruitment assay", "settings": "for FXR antagonist activity (in words): in the presence of GW4064 at its EC50 ([…] nM)"}}, "note": "Where “and” joins values, the source holds several entries; their conditions need not be identical. Identical values can stand only once.", "data": [{"molecule": "C[C@H](CCC(=O)CF)[C@H]1CC[C@H]2[C@@H]3[C@H](O)C[C@@H]4C[C@H](O)CC[C@]4(C)[C@H]3CC[C@]12C", "note": "[Compound 7]", "values": [{"measurement": "TGR5 antagonist activity (in words)", "setting": "TGR5", "value": "neither agonized nor antagonized TGR5"}, {"measurement": "TGR5 antagonist activity (in words)", "setting": "TGR5; listed as compound 7", "value": "did not antagonize TGR5"}, {"measurement": "% deconjugation of TDCA", "setting": "B. theta; 100 μM bile acid pool", "value": "0.33% and 0.00% and 0.20%"}, {"measurement": "% deconjugation of TUDCA", "setting": "B. theta; 100 μM bile acid pool", "value": "0.87% and 1.55% and 0.96%"}, {"measurement": "% deconjugation of TCA", "setting": "B. theta; 100 μM taurine conjugated bile acid pool", "value": "0.26% and 0.24% and 0.00%"}, {"measurement": "FXR agonist activity (in words)", "setting": "FXR; coactivator recruitment assay, listed as compound 7", "value": "does not activate FXR"}, {"measurement": "FXR antagonist activity (in words)", "setting": "FXR", "value": "neither an agonist nor an antagonist for FXR"}, {"measurement": "FXR antagonist activity (in words)", "setting": "FXR; listed as compound 7", "value": "does not possess FXR antagonist activity at physiologically relevant concentrations"}]}]}
